# Experimental data: PubChem BioAssay (NCATS)
# Where “and” joins values, the source holds several entries; their conditions need not be identical. Equal entries are not always repeated. The inconclusive results got no clear call from the source; some entries with a clear call stand among them for comparison. Where the call is inconclusive, the potency comes from a doubtful curve fit. Calls of active or inactive are those of the source. Unless noted, calls follow the shape of the dose curve; as a rule, active = well fitted curve in the direction sought with a large enough effect; inconclusive = small, poorly fitted or top-dose-only effect, or another doubt; inactive = no such curve, though single readings can be large; an effect the other way counts as inactive or inconclusive.
# Experiments:
# [1] = P-glycoprotein substrates identified in KB-8-5-11 adenocarcinoma cell line, qHTS therapeutic library screen (AID 1346987); also: nearly all actives have a fitted effect of over 65% in size
# Method in brief: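 P-gp-mediated resistance screen: KB-8-5-11 cells treated 72 h with compounds in dose-response. CellTiter-Glo viability.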
# [2] = Primary qHTS for inhibitors of nuclear receptor binding SET domain protein 2 (NSD2) in an isogenic RCH-ACV NSD2 p.E1099K mutant (9B) (AID 1645876); also: nearly all actives have a fitted effect of over 70% in size
# [3] = Primary qHTS for inhibitors of nuclear receptor binding SET domain protein 2 (NSD2) in an RCH-ACV wild type WT cells (2C) (AID 1645877); settings: activity change, negative = cell killing: at 44.9 µM (top of the series); also: nearly all actives have a fitted effect of over 70% in size
# [4] = tested on: HEK293; assay: Cytotoxic Profiling of Annotated Libraries Using Quantitative High-Throughput Screening (AID 1296008); settings: Five cell lines viability, CellTiter-Glo ATP luminescence, 48-72 h; max response: active compounds read low; also: nearly all actives have a fitted effect of over 60% in size; as to max response: % is scaled to controls: 0 for no effect and ±100 for the full control effect
# Method in brief: (§1)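 Cytotoxicity was measured as CellTiter-Glo ATP luminescence, read after 10 min at room temperature. Compound treatment of the cells lasted 48 or 72 hr at 37 degrees Celsius in a qHTS format.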
# [5] = tested on: KB-3-1; assay: as above; settings: Five cell lines viability, CellTiter-Glo ATP luminescence, 48-72 h; max response: active compounds read low
# Method in brief: as §1
# [6] = tested on: C33A; assay: Primary qHTS to identify gynecologic anti-cancer compounds using libraries of approved drugs and bioactive compounds (AID 1345084); settings: Gynecologic cancer cell panel viability, ATPlite luminescence, 48 h; series mostly up to 57.5 µM; also: nearly all actives have a fitted effect of over 55% in size; as to activity change, negative = cytotoxicity: % is scaled to controls: 0 for no effect and ±100 for the full control effect
# Method in brief: (§2)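 Cell viability after 48 h drug treatment, ATPlite luminescence readout; five doses.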
# [7] = tested on: CAOV3; assay: as above; settings: Gynecologic cancer cell panel viability, ATPlite luminescence, 48 h; series mostly up to 57.5 µM
# Method in brief: as §2
# [8] = tested on: CASKI; assay: as above; settings: Gynecologic cancer cell panel viability, ATPlite luminescence, 48 h; activity change, negative = cytotoxicity: at 57.5 µM (top of the series)
# Method in brief: as §2
# [9] = tested on: Es-2; assay: as above; settings: Gynecologic cancer cell panel viability, ATPlite luminescence, 48 h; series mostly up to 57.5 µM
# Method in brief: as §2
# [10] = tested on: HeLa; assay: as above; settings: Gynecologic cancer cell panel viability, ATPlite luminescence, 48 h; series mostly up to 57.5 µM
# Method in brief: as §2
# [11] = tested on: PA-1; assay: as above; settings: Gynecologic cancer cell panel viability, ATPlite luminescence, 48 h; series mostly up to 57.5 µM
# Method in brief: as §2
# [12] = tested on: SKOV3; assay: as above; settings: Gynecologic cancer cell panel viability, ATPlite luminescence, 48 h; series mostly up to 57.5 µM
# Method in brief: as §2
# [13] = tested on: NIH3T3; assay: Cytotoxic Profiling of Annotated Libraries Using Quantitative High-Throughput Screening (AID 1296008); settings: Five cell lines viability, CellTiter-Glo ATP luminescence, 48-72 h; max response: active compounds read low; also: nearly all actives have a fitted effect of over 60% in size; as to max response: % is scaled to controls: 0 for no effect and ±100 for the full control effect
# Method in brief: as §1
# [14] = tested on: Zika virus NS2B-NS3 protease (unlinked complex); assay: Primary screen GU Rhodamine qHTS for Zika virus inhibitors: Unlinked NS2B-NS3 protease assay (AID 1347159); also: nearly all actives have a fitted effect of over 60% in size
# Method in brief: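 A qHTS format was used, with compound concentrations ranging up to 114 microM. Each compound was preincubated with 25 nM NS2B-NS3 protease, and the substrate was then added at 1.5 microM. Curves were fitted with a 4-parameter Hill model.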
# [15] = tested on: Hek293T; assay: Primary qHTS to identify gynecologic anti-cancer compounds using libraries of approved drugs and bioactive compounds (AID 1345084); settings: Gynecologic cancer cell panel viability, ATPlite luminescence, 48 h, control line for the selectivity index; series mostly up to 57.5 µM; also: nearly all actives have a fitted effect of over 55% in size; as to activity change, negative = cytotoxicity: % is scaled to controls: 0 for no effect and ±100 for the full control effect
# Method in brief: as §2
# [16] = tested on: JEG-3; assay: as above; settings: Gynecologic cancer cell panel viability, ATPlite luminescence, 48 h; series mostly up to 57.5 µM
# Method in brief: as §2
# [17] = tested on: OV90; assay: as above; settings: Gynecologic cancer cell panel viability, ATPlite luminescence, 48 h; series mostly up to 57.5 µM
# Method in brief: as §2
# [18] = tested on: Tov-21-G; assay: as above; settings: Gynecologic cancer cell panel viability, ATPlite luminescence, 48 h; activity change, negative = cytotoxicity: at 57.5 µM (top of the series)
# Method in brief: as §2
# [19] = tested on: Tov112D; assay: as above; settings: Gynecologic cancer cell panel viability, ATPlite luminescence, 48 h; activity change, negative = cytotoxicity: at 57.5 µM (top of the series)
# Method in brief: as §2
# [20] = target: Cytochrome P450 2D6 (Homo sapiens) (UniProt P10635); assay: Cytochrome P450 family 2 subfamily D member 6 (CYP2D6) small molecule antagonists: luciferase biochemical (cell-free) qHTS assay (AID 1645840; active = well fitted curve in the direction sought with a large enough effect in the repeat runs; inconclusive = weak or mixed curves; inactive = no such curve, though single readings can be large; an effect the other way counts as inactive or inconclusive; also: nearly all actives have a fitted effect of over 55% in size)
# UniProt P10635, sequence (P10635 whole entry, looked up): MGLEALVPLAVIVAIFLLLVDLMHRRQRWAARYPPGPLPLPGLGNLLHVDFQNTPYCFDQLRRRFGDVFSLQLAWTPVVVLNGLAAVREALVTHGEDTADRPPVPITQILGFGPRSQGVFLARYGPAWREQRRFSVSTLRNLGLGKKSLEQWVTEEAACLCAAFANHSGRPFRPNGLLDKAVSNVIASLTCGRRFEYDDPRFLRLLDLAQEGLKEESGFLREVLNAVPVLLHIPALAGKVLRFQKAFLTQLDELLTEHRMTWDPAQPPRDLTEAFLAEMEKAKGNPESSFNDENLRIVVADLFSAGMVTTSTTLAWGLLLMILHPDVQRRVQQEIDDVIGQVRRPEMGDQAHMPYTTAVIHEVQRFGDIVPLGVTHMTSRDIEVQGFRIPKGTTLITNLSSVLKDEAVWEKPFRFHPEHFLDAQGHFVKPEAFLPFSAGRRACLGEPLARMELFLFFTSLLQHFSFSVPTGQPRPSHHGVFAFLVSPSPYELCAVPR
# Method in brief: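 P450-Glo luminescent screen: recombinant CYP2D6 enzyme–proluciferin substrate mix preincubated with compound 10 min at room temperature, then NADPH regeneration added for 1 h at room temperature. Detection reagent added for 20 min; luciferin light read as relative luminescence units.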
# Potency is read from the fitted curve at half-maximal effect; tags tell the direction and shape of the fitted curve.
smiles,measurement,setting,value
CC(C)=C1C[C@@]2(C)C(=CC1=O)CC[C@@H](OC(=O)/C(C)=C/CO)[C@@H]2C,Potency,[1],"inconclusive: 3.6 µM [inhibitor, partial curve]"
same,Potency,[2],"inconclusive: 4.5 µM [inhibitor, partial curve]"
same,Potency,[3],"inconclusive: 5.05 µM [inhibitor, partial curve, poor fit]"
same,Potency,[4],active: 1.28 µM
same,Potency,[5],"inconclusive: 1.14 µM [inhibitor, full curve]"
same,Potency,[6],"inconclusive: 11.2 µM [cytotoxic, single point]"
same,Potency,[7],inactive
same,Potency,[8],"inconclusive: 28.2 µM [cytotoxic, single point]"
same,Potency,[9],"inconclusive: 11.2 µM [cytotoxic, single point]"
same,Potency,[10],inactive
same,Potency,[11],"inconclusive: 28.2 µM [cytotoxic, single point]"
same,Potency,[12],active: 11.2 µM
OCC(CO)(CO)NCC(O)Cn1c2ccc(Cl)cc2c2cc(Cl)ccc21 (stereo unspecified),Potency,[2],active: 20.5 µM
same,Potency,[4],"inconclusive: 29.1 µM [inhibitor, single point]"
same,Potency,[5],"inconclusive: 25.9 µM [inhibitor, single point]"
same,Potency,[13],"inconclusive: 20.6 µM [inhibitor, single point]"
same,Potency,[12],"inconclusive: 39.8 µM [cytotoxic, single point]"
CC[C@@H](C)Nc1cc(C(=O)NC2CC3CCC(C2)N3c2ccc(C(=O)C3CC3)cn2)c(C)cc1C(N)=O (stereo partly specified),Potency,[14],"inconclusive: 89.1 µM [inhibitor, single point]"
same,Potency,[2],active: 0.118 µM
same,Potency,[3],active: 0.132 µM
same,Potency,[4],active: 0.13 µM
same,Potency,[5],"inconclusive: 0.164 µM [inhibitor, full curve]"
same,Potency,[6],"inconclusive: 0.398 µM [cytotoxic, full curve]"
same,Potency,[7],"inconclusive: 0.447 µM [cytotoxic, full curve, poor fit]"
same,Potency,[8],"inconclusive: 0.501 µM [cytotoxic, full curve]"
same,Potency,[9],"inconclusive: 1.41 µM [cytotoxic, full curve]"
same,Potency,[10],"inconclusive: 0.316 µM [cytotoxic, full curve, poor fit]"
same,Potency,[15],"inconclusive: 0.316 µM [cytotoxic, full curve]"
same,Potency,[16],"inconclusive: 0.501 µM [cytotoxic, full curve, poor fit]"
same,Potency,[17],active: 0.316 µM
same,Potency,[12],"inconclusive: 1.12 µM [cytotoxic, full curve, poor fit]"
same,Potency,[18],active: 0.398 µM
same,Potency,[19],"inconclusive: 0.631 µM [cytotoxic, full curve]"
O=C(CC(c1ccccc1)c1ccccc1)N1CCN(C(c2ccccc2)c2ccccc2)CC1,Potency,[1],active: 16.4 µM
same,Potency,[14],inactive
same,Potency,[4],active: 20.6 µM
same,Potency,[5],active: 18.4 µM
same,Potency,[13],"inconclusive: 13 µM [inhibitor, partial curve, poor fit]"
C/C=C/[C@@H]1C=C[C@@H]2C[C@H](C)CC[C@H]2[C@]1(C)/C(O)=C1/C(=O)[C@@H](CO)N(C)C1=O,Potency,[1],"inconclusive: 12.8 µM [inhibitor, single point]"
same,Potency,[14],"inconclusive: 11.2 µM [inhibitor, full curve]"
same,Potency,[2],"inconclusive: 20.1 µM [inhibitor, single point]"
same,Potency,[3],"inconclusive: 20.1 µM [inhibitor, single point]"
same,Potency,[4],"inconclusive: 12.8 µM [inhibitor, single point]"
same,Potency,[5],"inconclusive: 20.2 µM [inhibitor, single point]"
same,Potency,[6],"inconclusive: 28.2 µM [cytotoxic, single point]"
same,Potency,[15],inactive
same,Potency,[11],inactive
CCc1cc(C(N)=O)ccc1-n1nc(C(C)C)c2c(-n3cnc(-c4cnn(C)c4)c3)ccnc21,Potency,[1],active: 3.66 µM
same,max response,[4],inactive: -117%
same,Potency,[5],"inconclusive: 0.58 µM [inhibitor, full curve]"
same,Potency,[6],"inconclusive: 1.58 µM [cytotoxic, full curve]"
same,Potency,[7],"inconclusive: 1.41 µM [cytotoxic, full curve]"
same,Potency,[15],"inconclusive: 0.794 µM [cytotoxic, full curve]"
same,Potency,[17],"inconclusive: 2 µM [cytotoxic, full curve, poor fit]"
same,Potency,[11],inconclusive: 3.16 µM
same,Potency,[12],"inconclusive: 11.2 µM [cytotoxic, partial curve, poor fit]"
same,Potency,[18],active: 3.55 µM
same,Potency,[19],inconclusive: 0.0891 µM
FC(F)(F)c1ccc(/C=C/c2nc(COc3ccc(CCCCn4ccnn4)cc3)co2)cc1,Potency,[1],"inconclusive: 0.0164 µM [inhibitor, full curve]"
same,Potency,[20],inactive
same,Potency,[2],"inconclusive: 16.3 nM [inhibitor, full curve] and inconclusive: 118 nM [inhibitor, full curve]"
same,Potency,[3],"inconclusive: 16.3 nM [inhibitor, full curve] and inconclusive: 93.4 nM [inhibitor, full curve]"
same,Potency,[4],active: 0.0291 µM
same,Potency,[5],"inconclusive: 0.0291 µM [inhibitor, full curve]"
same,Potency,[6],inconclusive: 0.0398 µM
same,Potency,[8],"inconclusive: 0.1 µM [cytotoxic, full curve, poor fit]"
same,Potency,[9],"inconclusive: 3.98 µM [cytotoxic, partial curve, poor fit]"
same,Potency,[16],"inconclusive: 3.16 µM [cytotoxic, partial curve, poor fit]"
same,Potency,[17],"inconclusive: 0.398 µM [cytotoxic, full curve, poor fit]"
same,Potency,[11],"inconclusive: 0.1 µM [cytotoxic, full curve, poor fit]"
same,Potency,[12],inconclusive: 1 µM
CCN1CCN(Cc2ccc(NC(=O)c3ccc(C)c(NC(=O)c4cncc(-c5cccs5)c4)c3)cc2C(F)(F)F)CC1,Potency,[3],active: 51.5 nM and active: 186 nM
same,Potency,[4],active: 1.3 µM
same,Potency,[5],active: 14.6 µM
same,Potency,[6],"inconclusive: 15.8 µM [cytotoxic, partial curve, poor fit]"
same,Potency,[7],active: 10 µM
same,Potency,[8],active: 10 µM
same,Potency,[9],active: 2.82 µM
same,Potency,[10],"inconclusive: 1.12 µM [cytotoxic, full curve, poor fit]"
same,Potency,[15],"inconclusive: 10 µM [cytotoxic, partial curve]"
same,Potency,[16],active: 25.1 µM
same,Potency,[17],active: 12.6 µM
same,Potency,[12],"inconclusive: 2.24 µM [cytotoxic, partial curve, poor fit]"
same,Potency,[19],active: 3.55 µM
CC(=O)Oc1ccc2c(c1)CC[C@@H]1[C@@H]2CC[C@]2(C)[C@@H](O)CC[C@@H]12,Potency,[20],"inconclusive: 9.77 µM [inhibitor, partial curve]"
same,Potency,[2],active: 13.3 µM
same,Potency,[4],"inconclusive: 21.1 µM [inhibitor, single point]"
same,Potency,[5],"inconclusive: 29.1 µM [inhibitor, single point]"
same,Potency,[7],inactive
same,Potency,[11],"inconclusive: 35.5 µM [cytotoxic, single point]"
same,Potency,[12],inactive
same,Potency,[19],"inconclusive: 39.8 µM [cytotoxic, single point]"
CC1CC(=O)C2=C(C1)C1OC1C1(O)C2C(=O)c2cccc(O)c2C1O (stereo unspecified),Potency,[1],inactive
same,Potency,[14],"inconclusive: 10 µM [inhibitor, partial curve]"
same,max response,[4],inactive: -91.9%
same,Potency,[5],"inconclusive: 18 µM [inhibitor, single point]"
same,Potency,[6],inactive
same,Potency,[9],inconclusive: 0.0794 µM
same,Potency,[10],inconclusive: 0.0316 µM
same,Potency,[16],inconclusive: 5.01 µM
same,Potency,[11],inconclusive: 2.24 µM
same,Potency,[18],inconclusive: 0.0794 µM
same,Potency,[19],active: 0.0891 µM
CCC(C)C(=O)O[C@H]1C[C@](C)(O)[C@]23OC(C)(C)[C@H](C[C@H](OC(=O)c4ccccc4)[C@]2(COC(C)=O)[C@H]1OC(=O)C(C)CC)[C@H]3OC(C)=O (stereo partly specified),Potency,[3],inactive
same,max response,[4],inactive: -12.8%
same,outcome,[5],inactive
same,Potency,[6],inactive
same,Potency,[7],inactive
same,Potency,[15],inactive
CS(=O)(=O)c1ccc([C@@H](O)[C@@H](CF)NC(=O)C(Cl)Cl)cc1,Potency,[1],"inconclusive: 6.99 µM [inhibitor, single point]"
same,Potency,[4],"inconclusive: 0.731 µM [inhibitor, partial curve, poor fit]"
same,Potency,[5],"inconclusive: 1.76 µM [inhibitor, full curve]"
same,Potency,[16],"inconclusive: 8.91 µM [rising, single point]"
same,Potency,[11],inactive
same,Potency,[19],inactive
COc1ccc(CNC(=O)Nc2ncc([N+](=O)[O-])s2)cc1,Potency,[1],active: 23.1 µM
same,Potency,[14],"inconclusive: 17.8 µM [inhibitor, partial curve, poor fit]"
same,Potency,[20],"inconclusive: 21.3 µM [inhibitor, single point]"
same,Potency,[4],"inconclusive: 29.1 µM [inhibitor, single point]"
same,Potency,[5],"inconclusive: 18.4 µM [inhibitor, single point]"
same,Potency,[6],"inconclusive: 22.4 µM [cytotoxic, partial curve, poor fit]"
same,Potency,[9],"inconclusive: 31.6 µM [cytotoxic, single point]"
same,Potency,[10],"inconclusive: 39.8 µM [cytotoxic, single point]"
same,Potency,[15],"inconclusive: 28.2 µM [cytotoxic, single point]"
same,Potency,[17],"inconclusive: 25.1 µM [cytotoxic, single point]"
same,Potency,[11],"inconclusive: 39.8 µM [cytotoxic, single point]"
